Results on 14 molecules are retold here after article PMC12136788.

B1: chr3:176740097:176740098:-_ENSG00000177565_ENST00000430069|hu_mus|hu_hu_hu_mus_True|38_38 (ssRNA)
RNA: GGGAGUUCUACAGUCCGACGAUCUGUUUUGUAUACCACAAAAGGAGGCACUUUCAGUAUCUGCAAAAGGUGUUUAGUCCUAAAACAUACUCACCUAGAGAAUAAUUCAGGAAAACAAUCUGUUACACUCUAAGACCUACUCCACAACAGAGGAUUGAGCAUCA
B2: chr1:224585847:224585848:-_ENSG00000162923_ENST00000295024|hu_mus|FALSE|FALSE (ssRNA)
RNA: GGGAGUUCUACAGUCCGACGAUCUCCAAAACACGAGUGGAUUGUAUAAAACCCUUGGGUAACACCUUGAUAUUUCCUUACUAAAACUCUGUCUUGCAAGUCCCAUAAAUGAACUCCCUGAGUUGCUACAUUUAACAAAGCUAACAACAGAGGAUUGAGCAUCA
B3: 123812538_123813364_1272_CDS_ENSG00000139697_ENST00000420886|human|control|control (ssRNA)
RNA: GGGAGUUCUACAGUCCGACGAUCUAAGUUUUUGGCUUUAUGACACUCAUCAAACACUAUCACUCCAUCGAAGUCAUCACCGCACCAAUGCAGAAGUUGUUUUAACCUAGUUUUAUACUUGCCGCCAGACUGGCUUUCACCAAUCAACAGAGGAUUGAGCAUCA
B4: chr10:121347744:121347745:-_ENSG00000151923_ENST00000436547|hu_mus|motif|central (ssRNA)
RNA: GGGAGUUCUACAGUCCGACGAUCCGAUCUGACUGAAUAACUGAAGAAUAAGGACUUCUGUCACAUCUCUGGAGAGGUUACCGGCGUAUAGAGUCCGGGGCUGUCCGUCGUCUUCCAUCAUGGUGGGUGCGACGGAGUGAUCCCCAACAGAGGAUUGAGCAUCA
B5: chr4:88365945:88365946:-_ENSMUSG00000070923_ENSMUST00000094993|mus_hu|FALSE|FALSE (ssRNA)
RNA: GGGAGUUCUACAGUCCGACGAUCAAUGCAUUUGUUAGCCACUUGAUAAACAUACUAAAAGCCAUACAAGACGAAUAACAUCAGUUACCUUUAUAUCUAAUAACUGUACCAAUCACUGUAAGAAGAUACAACUGAAGGGGAAGUCAACAGAGGAUUGAGCAUCA
B6: chr14:76907486:76907487:+_ENSMUSG00000022010_ENSMUST00000022587|mus_mus|FALSE|FALSE (ssRNA)
RNA: GGGAGUUCUACAGUCCGACGAUCACAAGUAGAACAGGUAAAUACAGUGGGGACUGUGUGGGGGACAUGCGCAGAACGACUAUACAGGUGAGGUGCAGAAACCCCUACUGGGAAAUCCACUUCCUUAGCAACUGACCACUUCUCCAACAGAGGAUUGAGCAUCA
B7: chr3:150289932:150289933:+_ENSG00000144895_ENST00000460851|hu_hu|hu_hu_hu_mus_False|18_78 (ssRNA)
RNA: GGGAGUUCUACAGUCCGACGAUCCUUGUAGUUUUUAACAUCCCAUACUUCCAUUUGUCCCCUCAGAUUUCCAAAUCCAGCCAGCACUAAUAUAUGUCCAUGAGGGCUAUAGAAGGCUGCAUUACGAGGACCAGUCCCAAAGUCCAACAGAGGAUUGAGCAUCA
B8: 81714202_81746465_819_CDS_ENSG00000153956_ENST00000356860|human|control|control (ssRNA)
RNA: GGGAGUUCUACAGUCCGACGAUCUAACACAAUUGUUGAGCCCUCAUAGAUGUCAGUAGGAAUAUGGACUGCUGCGUGCUGAUAAGAUAUUUGUCGUCCAAAAUUAGCAUCUUCAAUGAAAACAGGUUUUAUCCUCUGGCUGCCCAACAGAGGAUUGAGCAUCA
B9: chr4:144460044:144460045:+_ENSG00000153147_ENST00000283131|hu_mus|hu_hu_hu_mus_False|48_68 (ssRNA)
RNA: GGGAGUUCUACAGUCCGACGAUCACGGUCCAUAGCCUGAAGAUCAACUUGCGGAUUCCAAUCUGAGUCAUACAAAAUGACUACAUCAGCAGUCGCAAGAUUGAUGCCCAGACCACCAGCACGUGUGCUUAGCAUAAAUACAAACAACAGAGGAUUGAGCAUCA
B10: chr3:98518469:98518470:-_ENSG00000057019_ENST00000326840|hu_hu|FALSE|FALSE (ssRNA)
RNA: GGGAGUUCUACAGUCCGACGAUCUGGGGGAGGUUGGUUCCCCGUAGCCUUGAAAGUGGAUGUGGAGGGCUGACCAACUGAAGUUGUGGGGUGCCCUGACAUGUCCAUGAUGAUUGGGGUUGCAUACUCAGGCCCCGUAAUUGGCAACAGAGGAUUGAGCAUCA
B11: chr17:63010574:63010575:-_ENSG00000120063_ENST00000439174|hu_hu|motif|central (ssRNA)
RNA: GGGAGUUCUACAGUCCGACGAUCGAAACAUUCCACCAGGAAUUUUUGGACGUCUCUUAAGCAGUGGGGAUCCCCUUCAAAUUCGGGGAAAUAGUCUUUGAUGCUCACAAUUUGCACCUUCUCCUCAAGCAAGUCUGUCUUGUUCAACAGAGGAUUGAGCAUCA
B12: 60849485_60849605_2359_CDS_ENSMUSG00000021559_ENSMUST00000077453|mouse|control|control (ssRNA)
RNA: GGGAGUUCUACAGUCCGACGAUCGAAACUCCUUAACAGCCCACACUUGAGAGAUUCCACCAGGGUGGAUUUCCCUGAUCCCGAAUGGCCAAACAGUUUGAGCUUGAUUCUGGGCUGGAGAUUCUGGGUGGGUCGGAGUUGCUGCAACAGAGGAUUGAGCAUCA
B13: 107179118_107179238_2844_3pUTR_ENSMUSG00000047496_ENSMUST00000058688|mouse|control|control (ssRNA)
RNA: GGGAGUUCUACAGUCCGACGAUCAGCACACGUCUGUUGUGCAGCUUGAAGAUGAAGGCCAGCAGGCCAAUCAUGCUUCCAUGUUCCAGGGCUGCUUCUGACCUUGCUUAGAUCCUGUGCCACUCUUUCCUUUCCUUUGCCUUUCAACAGAGGAUUGAGCAUCA
B14: chr4:17845017:17845018:+_ENSG00000109805_ENST00000514176|hu_mus|hu_hu_hu_mus_False|1_108 (ssRNA)
RNA: GGGAGUUCUACAGUCCGACGAUCGCUUCCUAACUUAGUAUCUUCAUUAAGGAACUCUGCAAGGUUAAGUUUACUUUUCUGUAGCGCAGCUGUUUUGGCUCGUCUGGGUAAUCUCAUCUUCAUUUCUGAUGGUGGUUUGGAACUCAACAGAGGAUUGAGCAUCA

Some of the results follow.

The test addresses T1, UNK ZnF1-3 (human, UniProt Q9C0B0 31-174).
T1 sequence: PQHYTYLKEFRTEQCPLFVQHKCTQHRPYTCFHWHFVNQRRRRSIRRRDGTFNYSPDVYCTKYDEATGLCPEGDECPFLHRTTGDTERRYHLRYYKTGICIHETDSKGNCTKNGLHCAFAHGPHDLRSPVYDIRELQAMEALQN
The test is described as follows: nsRBNS (natural sequence RNA bind-n-seq); RBNS binding buffer (assumed for nsRBNS): 25 mM Tris pH 7.5, 150 mM KCl, 3 mM MgCl2, 0.01% Triton X-100, 500 ug/ml BSA, 20 U/ml SUPERase-In, 4 C; UNK is unkempt and MSI1 is Musashi-1; names of the RNAs are library labels; protein concentration not given here; high values mean tight binding.
Turning to B1, the binding signal came out at 0.791 enrichment R.

Consider B2, for which the binding signal was determined as 1.13 enrichment R.

With B3, the binding signal was determined as 0.798 enrichment R.

Molecule B4 displayed a binding signal of 0.559 enrichment R.

In the case of B5, the binding signal was 1.18 enrichment R.

The molecule B6 had a binding signal of 1.12 enrichment R.

B7 registered a binding signal of 1.39 enrichment R.

In turn, B8 gave a binding signal of 1.4 enrichment R.

On to B9, for which the binding signal amounted to 0.633 enrichment R.

Molecule B10 came in with a binding signal of 0.523 enrichment R.

In turn, B11 returned a binding signal of 0.659 enrichment R.

In turn, B12 came in with a binding signal of 1.18 enrichment R.

For the molecule B13, the binding signal was 0.882 enrichment R.

Turning to B14, the binding signal was found to be 0.592 enrichment R.
